# Measured values from the supplement of paper PMC8728848.
# This is one part of the list.
# What was measured:
# Test in all cases: glycan array binding signal (z-score within array); higher = stronger binding
# Details in all cases: glycan notation: IUPAC condensed, linker removed
# [1] = molecular target: Neu5Ac(a2-6)GalNAc(b1-4)GlcNAc
# How it was run: (§1)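 Columns mapping to the same glycan were averaged after glycan names were converted to IUPAC-condensed notation. The data come from 3228 arrays in the Consortium for Functional Glycomics database, limited to those with an available protein sequence. Binding is reported as a within-array Z-score averaged across arrays of one protein sequence and across linkers.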
# [2] = molecular target: Neu5Ac(a2-6)GalNAc(b1-4)GlcNAc6S
# How it was run: as §1
# [3] = molecular target: Neu5Ac(a2-6)GlcNAc(b1-4)GlcNAc
# How it was run: as §1
# [4] = molecular target: Neu5Ac(a2-6)GlcNAc(b1-4)GlcNAc(b1-4)GlcNAc
# How it was run: as §1
# Neu5Ac(a2-8)Neu5Ac = molecular target: Neu5Ac(a2-8)Neu5Ac
# How it was run: as §1
# [5] = molecular target: Neu5Ac(a2-8)Neu5Ac(a2-3)Gal(b1-3)GalNAc(b1-4)[Neu5Ac(a2-3)]Gal(b1-4)Glc
# How it was run: as §1
# [6] = molecular target: Neu5Ac(a2-8)Neu5Ac(a2-3)Gal(b1-3)GalNAc(b1-4)[Neu5Ac(a2-8)Neu5Ac(a2-3)]Gal(b1-4)Glc
# How it was run: as §1
# [7] = molecular target: Neu5Ac(a2-8)Neu5Ac(a2-3)Gal(b1-4)Glc
# How it was run: as §1
# [8] = molecular target: Neu5Ac(a2-8)Neu5Ac(a2-3)Gal(b1-4)GlcNAc
# How it was run: as §1
# [9] = molecular target: Neu5Ac(a2-8)Neu5Ac(a2-3)[Gal(b1-3)GalNAc(b1-4)]Gal(b1-4)Glc
# How it was run: as §1
# [10] = molecular target: Neu5Ac(a2-8)Neu5Ac(a2-3)[GalNAc(b1-4)]Gal(b1-4)Glc
# How it was run: as §1
# [11] = molecular target: Neu5Ac(a2-8)Neu5Ac(a2-8)Neu5Ac
# How it was run: as §1
# [12] = molecular target: Neu5Ac(a2-8)Neu5Ac(a2-8)Neu5Ac(a2-3)Gal(b1-4)Glc
# How it was run: as §1
# [13] = molecular target: Neu5Ac(a2-8)Neu5Ac(a2-8)Neu5Ac(a2-3)[Gal(b1-3)GalNAc(b1-4)]Gal(b1-4)Glc
# How it was run: as §1
# [14] = molecular target: Neu5Ac(a2-8)Neu5Ac(a2-8)Neu5Ac(a2-3)[GalNAc(b1-4)]Gal(b1-4)Glc
# How it was run: as §1
# [15] = molecular target: Neu5Ac(a2-8)Neu5Ac(a2-8)Neu5Ac(a2-8)Neu5Ac(a2-3)[GalNAc(b1-4)]Gal(b1-4)Glc
# How it was run: as §1
# [16] = molecular target: Neu5Ac(a2-8)Neu5Gc(a2-3)Gal(b1-4)GlcNAc
# How it was run: as §1
# [17] = molecular target: Neu5Ac(b2-6)Gal(b1-4)GlcNAc
# How it was run: as §1
# Neu5Ac(b2-6)GalNAc = molecular target: Neu5Ac(b2-6)GalNAc
# How it was run: as §1
# [18] = molecular target: Neu5Ac9Ac(a2-3)Gal(b1-3)GlcNAc
# How it was run: as §1
# [19] = molecular target: Neu5Ac9Ac(a2-3)Gal(b1-4)GlcNAc
# How it was run: as §1
# [20] = molecular target: Neu5Ac9Ac(a2-6)Gal(b1-4)GlcNAc
# How it was run: as §1
# [21] = molecular target: Neu5Gc(a2-3)Gal(b1-3)GlcNAc
# How it was run: as §1
# [22] = molecular target: Neu5Gc(a2-3)Gal(b1-3)[Fuc(a1-4)]GlcNAc
# How it was run: as §1
# Neu5Gc(a2-3)Gal(b1-4)Glc = molecular target: Neu5Gc(a2-3)Gal(b1-4)Glc
# How it was run: as §1
# [23] = molecular target: Neu5Gc(a2-3)Gal(b1-4)GlcNAc
# How it was run: as §1
# [24] = molecular target: Neu5Gc(a2-3)Gal(b1-4)GlcNAc(b1-3)Gal(b1-4)GlcNAc(b1-2)Man(a1-3)[Neu5Gc(a2-3)Gal(b1-4)GlcNAc(b1-3)Gal(b1-4)GlcNAc(b1-2)Man(a1-6)]Man(b1-4)GlcNAc(b1-4)GlcNAc
# How it was run: as §1
# [25] = molecular target: Neu5Gc(a2-3)Gal(b1-4)[Fuc(a1-3)]GlcNAc
# How it was run: as §1
# [26] = molecular target: Neu5Gc(a2-6)Gal(b1-4)GlcNAc
# How it was run: as §1
# Neu5Gc(a2-6)GalNAc = molecular target: Neu5Gc(a2-6)GalNAc
# How it was run: as §1
# [27] = molecular target: Neu5Gc(a2-8)Neu5Ac(a2-3)Gal(b1-4)GlcNAc
# How it was run: as §1
# [28] = molecular target: Neu5Gc(a2-8)Neu5Gc(a2-3)Gal(b1-4)GlcNAc
# How it was run: as §1
# [29] = molecular target: Neu5Gc(a2-8)Neu5Gc(a2-3)Gal(b1-4)GlcNAc(b1-3)Gal(b1-4)GlcNAc
# How it was run: as §1
# [30] = molecular target: Neu5Gc(a2-8)Neu5Gc(a2-6)Gal(b1-4)GlcNAc
# How it was run: as §1
# [31] = molecular target: Neu5Gc(b2-6)Gal(b1-4)GlcNAc
# How it was run: as §1
binder,measurement,setting,value
rMpL (Macrolepiota procera) (protein) MSTQVSSGRTYKITNVIAGTVIDLSGEDNKSIIGYPYHSGKNQQWTFNWTGKAWTLRSASSGSYLGIEGTPAGGTRLVAVNDPFEWHIWRDEANENAFRIFVPFTNYNLDLSGYGDTTPGTPVQLWWTWEGLHQTWTIDRP,glycan array binding signal (z-score),[1],-0.425
same,glycan array binding signal (z-score),[2],-0.284
same,glycan array binding signal (z-score),[3],-0.364
same,glycan array binding signal (z-score),[4],-0.408
same,glycan array binding signal (z-score),Neu5Ac(a2-8)Neu5Ac,-0.372
same,glycan array binding signal (z-score),[5],-0.353
same,glycan array binding signal (z-score),[6],0.176
same,glycan array binding signal (z-score),[7],-0.388
same,glycan array binding signal (z-score),[8],-0.389
same,glycan array binding signal (z-score),[9],-0.298
same,glycan array binding signal (z-score),[10],-0.35
same,glycan array binding signal (z-score),[11],-0.289
same,glycan array binding signal (z-score),[12],-0.27
same,glycan array binding signal (z-score),[13],0.139
same,glycan array binding signal (z-score),[14],-0.174
same,glycan array binding signal (z-score),[15],-0.267
same,glycan array binding signal (z-score),[16],-0.407
same,glycan array binding signal (z-score),[17],-0.33
same,glycan array binding signal (z-score),Neu5Ac(b2-6)GalNAc,-0.338
same,glycan array binding signal (z-score),[18],-0.374
same,glycan array binding signal (z-score),[19],0.277
same,glycan array binding signal (z-score),[20],-0.345
same,glycan array binding signal (z-score),[21],-0.3
same,glycan array binding signal (z-score),[22],-0.335
same,glycan array binding signal (z-score),Neu5Gc(a2-3)Gal(b1-4)Glc,-0.756
same,glycan array binding signal (z-score),[23],-0.36
same,glycan array binding signal (z-score),[24],-0.182
same,glycan array binding signal (z-score),[25],-0.318
same,glycan array binding signal (z-score),[26],-0.321
same,glycan array binding signal (z-score),Neu5Gc(a2-6)GalNAc,-0.358
same,glycan array binding signal (z-score),[27],-0.401
same,glycan array binding signal (z-score),[28],-0.367
same,glycan array binding signal (z-score),[29],-0.369
same,glycan array binding signal (z-score),[30],-0.284
same,glycan array binding signal (z-score),[31],-0.355
